# Test results as given in PubChem BioAssay (Tox21).
# Where “and” joins values, the source holds several entries; their conditions need not be identical. Identical values can stand only once. Inconclusive means that the source gave no clear call. Such entries were picked first, then a sample of the others. For some assays here: Potencies of inconclusive entries are doubtful fits and often do not repeat. Calls of active or inactive are those of the source. Unless noted, calls come from the whole dose curve.
# Experiments:
# [1] = qHTS assay to identify small molecule agonists of the endoplasmic reticulum stress response signaling pathway (AID 1159516; active = well fitted activation curve with a large enough effect in the signal ratio in the repeat runs, not every such curve was filed as active; inconclusive = weak or mixed curves, or effect the other way; the % refers to the signal ratio; for activation: % is set by controls: 0 for no effect and ±100 for the full control effect); conditions: ESRE-bla HeLa, ER stress beta-lactamase reporter, 5 h; activation: at 61 µM (top of the series) unless noted
# Summary of the method: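 CellSensor ESRE-bla HeLa cells, carrying a beta-lactamase reporter driven by the ER stress response element, were plated overnight and exposed to compounds for 5 hr at 37 C. Reporter activity was read as FRET substrate fluorescence after 2 hr at room temperature.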
# [2] = qHTS assay to identify small molecule agonists of the endoplasmic reticulum stress response signaling pathway - cell viability counter screen (AID 1159517); conditions: ESRE-bla HeLa viability, CellTiter-Glo luminescence, 5 h; series mostly up to 61 µM; note: nearly all actives have a fitted effect of over 50% in size
# Summary of the method: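 ESRE-bla HeLa cells, 1,500 per well, seeded overnight then treated with compounds for 5 hr at 37 C. After the beta-lactamase read, viability in the same wells is measured by CellTiter-Glo luminescence after 30 min at room temperature.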
# [3] = qHTS assay to identify small molecule antagonists of the retinoid-related orphan receptor gamma (ROR-gamma) signaling pathway - cell viability counter screen (AID 1159520; active = well fitted curve in the direction sought with a large enough effect in the repeat runs; inconclusive = weak or mixed curves; inactive = no such curve, though single readings can be large; an effect the other way counts as inactive or inconclusive; note: nearly all actives have a fitted effect of over 50% in size); conditions: Tet-on RORgamma CHO cells viability, ATP luminescence, 16 h; series mostly up to 92.4 µM
# Summary of the method: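 Tet-on ROR gamma CHO cells were given compounds for 2 hr, then doxycycline hyclate at 1 uM final, and incubated 16 hr at 37 C. Viability was measured as ATP content by CellTiter-Glo luminescence.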
# [4] = biological target: Nuclear receptor ROR-gamma (Homo sapiens) (UniProt P51449); assay: qHTS assay to identify small molecule antagonists of the retinoid-related orphan receptor gamma (ROR-gamma) signaling pathway (AID 1159521; active = well fitted curve in the direction sought with a large enough effect in the repeat runs; inconclusive = weak or mixed curves; inactive = no such curve, though single readings can be large; an effect the other way counts as inactive or inconclusive; note: nearly all actives have a fitted effect of over 50% in size); conditions: Tet-on RORgamma CHO cells, RORE-luciferase, 16 h; series mostly up to 92.4 µM
# Summary of the method: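 Antagonist read-out: drop in luminescence (ONE-Glo) from an RORE-LUC reporter in CHO cells with doxycycline-inducible ROR-gamma; 2 hr compound pretreatment, 1 uM doxycycline, 16 hr incubation at 37 C.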
# [5] = biological target: Retinoic acid receptor RXR-alpha (Homo sapiens) (UniProt P19793); assay: qHTS assay to identify small molecule agonists of the RXR signaling pathway (AID 1159527); conditions: HEK293T RXRa-UAS-bla, beta-lactamase ratio, 16 h; activation: at 76.8 µM (top of the series) unless noted; note: nearly all actives have a fitted effect of over 35% in size; for activation: % is set by controls: 0 for no effect and ±100 for the full control effect
# Summary of the method: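 Agonist-mode beta-lactamase reporter assay: HEK 293T RXR-alpha-UAS-bla cells treated 16 hr at 37 C with compounds, 9-cis retinoic acid as positive control. LiveBLAzer FRET substrate, 405 nm excitation, 460/530 nm emission.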
# [6] = qHTS assay to identify small molecule agonists of the RXR signaling pathway - cell viability counter screen (AID 1159529; active = well fitted curve in the direction sought with a large enough effect in the repeat runs; inconclusive = weak or mixed curves; inactive = no such curve, though single readings can be large; an effect the other way counts as inactive or inconclusive; note: nearly all actives have a fitted effect of over 50% in size); conditions: RXR-alpha-bla HEK293T viability, CellTiter-Glo, 16 h; series mostly up to 76.8 µM
# Summary of the method: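 CellTiter-Glo luminescence gave viability in the wells also read for beta-lactamase. Cells (RXR-alpha-UAS-bla HEK 293T, 2% charcoal-stripped FBS medium) had 5 hr plating, then 16 hr compound exposure at 37 C; tetraoctyl ammonium bromide served as positive control.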
# [7] = qHTS assay to identify small molecule antagonists of the vitamin D receptor (VDR) signaling pathway - cell viability counter screen (AID 743225; active = well fitted curve in the direction sought with a large enough effect in the repeat runs; inconclusive = weak or mixed curves; inactive = no such curve, though single readings can be large; an effect the other way counts as inactive or inconclusive; note: nearly all actives have a fitted effect of over 50% in size; for viability change, negative = cytotoxic: % is set by controls: 0 for no effect and ±100 for the full control effect); conditions: VDR-bla HEK293T viability, CellTiter-Glo luminescence, 16 h; viability change, negative = cytotoxic: at 61 µM (top of the series) unless noted
# Summary of the method: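 Cytotoxicity counter screen read by CellTiter-Glo luminescence (30 min, room temperature) in the same wells as the VDR-bla antagonist readout. HEK 293T VDR-UAS-bla cells had 16 h at 37C with compound and 3 nM (final) 1-alpha,25-dihydroxyvitamin D3, then 2 h with FRET substrate.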
# [8] = qHTS assay to identify small molecule agonists of the AP-1 signaling pathway (AID 1159526); conditions: ME-180 AP-1-bla reporter, beta-lactamase FRET ratio, 5 h; activation: at 76.8 µM (top of the series) unless noted; for activation: % is set by controls: 0 for no effect and ±100 for the full control effect
# [9] = qHTS assay to identify small molecule agonists of the AP-1 signaling pathway - cell viability counter screen (AID 1159525); conditions: ME-180 (cervical carcinoma) AP-1-bla cells viability, ATP luminescence, 5 h; series mostly up to 76.8 µM; note: nearly all actives have a fitted effect of over 55% in size
# Summary of the method: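 AP-1-bla ME-180 cells in Opti-MEM with 0.5% dialyzed FBS, compound exposure 5 h at 37 C in 15-point titration. Viability read in the same wells as ATP content by CellTiter-Glo luminescence, normalised to tetra-n-octylammonium bromide and DMSO controls.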
# Potency is the fitted concentration of half-maximal effect; tags give direction and shape of the fitted curve or compound fluorescence and quenching.
# Chain of UniProt P19793 (P19793 whole entry, looked up): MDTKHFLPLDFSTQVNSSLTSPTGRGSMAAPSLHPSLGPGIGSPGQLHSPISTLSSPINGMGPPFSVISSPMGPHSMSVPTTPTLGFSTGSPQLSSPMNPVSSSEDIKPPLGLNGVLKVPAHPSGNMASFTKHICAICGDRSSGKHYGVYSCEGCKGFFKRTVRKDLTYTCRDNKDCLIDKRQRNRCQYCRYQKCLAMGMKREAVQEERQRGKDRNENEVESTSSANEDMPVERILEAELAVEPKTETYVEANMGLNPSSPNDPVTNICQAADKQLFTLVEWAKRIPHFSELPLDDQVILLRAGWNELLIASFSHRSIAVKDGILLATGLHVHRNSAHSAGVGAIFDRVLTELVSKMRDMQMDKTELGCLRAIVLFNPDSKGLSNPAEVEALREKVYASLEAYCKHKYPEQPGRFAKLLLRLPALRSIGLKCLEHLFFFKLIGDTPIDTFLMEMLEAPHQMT
compound,measurement,setting,value
O=S(=O)(O)c1cc(S(=O)(=O)O)c2c(N=Nc3ccccc3)c(O)ccc2c1,Potency,[1],inactive
same,Potency,[2],"inconclusive: 54.9 µM [rising, single point]"
CC(C)NNC(=O)c1ccncc1,Potency,[1],inactive
same,Potency,[2],inactive
CNCCC(Oc1ccc(C(F)(F)F)cc1)c1ccccc1 (stereo not given),Potency,[1],"inconclusive: 27.2 µM [falling, full curve, poor fit]"
same,Potency,[2],"inconclusive: 17.2 µM [cytotoxic, partial curve, poor fit]"
same,Potency,[3],inconclusive: 67.7 µM [cytotoxic]
same,Potency,[4],"inconclusive: 67.7 µM [inhibitor, single point] and inconclusive: 18.8 µM [inhibitor, partial curve, poor fit]"
same,Potency,[5],"inconclusive: 60.9 µM [cytotoxic, single point] and inconclusive: 16.9 µM [inhibitor, partial curve, poor fit]"
same,Potency,[6],active: 27.2 µM
CC(NN)c1ccccc1 (stereo not given),Potency,[1],"inconclusive: 13.1 µM [activator, single point]"
same,Potency,[2],"inconclusive: 0.293 µM [cytotoxic, single point]"
Nc1ccc(N=Nc2ccccc2)c(N)n1,Potency,[7],"inactive and inconclusive: 15.5 µM [cytotoxic, partial curve]"
same,Potency,[1],inconclusive: 49.2 µM [inhibitor]
same,activation,[1],inconclusive: -6.78% and inconclusive: -5.39%
same,Potency,[4],inactive
same,Potency,[8],"inconclusive: 26.8 µM [falling, partial curve, poor fit]"
same,Potency,[5],inconclusive: 34.9 µM [inhibitor]
same,activation,[5],inconclusive: -10.8%
same,Potency,[6],"inconclusive: 5.49 µM [cytotoxic, full curve]"
CCC(C(=O)NC(N)=O)c1ccccc1 (stereo not given),Potency,[1],inactive
same,Potency,[2],inactive
CN1CCN(CCC(=O)N2c3ccccc3Sc3ccc(C(F)(F)F)cc32)CC1,Potency,[7],active: 12 µM
same,Potency,[1],"inconclusive: 30.1 µM [rising, single point]"
same,Potency,[2],inactive
same,Potency,[3],"inconclusive: 23.7 µM [cytotoxic, partial curve, poor fit]"
same,Potency,[4],"inconclusive: 33.5 µM [inhibitor, single point]"
same,Potency,[8],inconclusive: 1.69 µM [full curve]
same,Potency,[5],"inconclusive: 7.56 µM [inhibitor, full curve]"
O=C(O)c1cccc([N+](=O)[O-])c1,Potency,[1],inactive
same,Potency,[2],inconclusive: 0.387 µM [cytotoxic]
Cc1ccccc1S(N)(=O)=O,activation,[1],inconclusive: 9.22%
same,Potency,[2],inactive
CC(C)n1nc(-c2cc3cc(O)ccc3[nH]2)c2c(N)ncnc21,Potency,[1],"inconclusive: 1.51 µM [inhibitor, partial curve, poor fit]"
same,Potency,[2],active: 9.52 µM
same,Potency,[3],active: 2.98 µM
same,Potency,[4],"inconclusive: 0.0668 µM [inhibitor, full curve]"
same,Potency,[5],"inconclusive: 21.3 µM [rising, partial curve]"
same,Potency,[6],"inconclusive: 9.52 µM [cytotoxic, partial curve]"
CCOC(=O)/C=C/C(=O)OCC,Potency,[1],"inconclusive: 17.4 µM [rising, partial curve, poor fit]"
same,Potency,[2],"inconclusive: 24.6 µM [rising, partial curve, poor fit]"
CC=C(Cl)Cl,Potency,[1],"inconclusive: 42.8 µM [rising, single point]"
same,Potency,[2],"inconclusive: 60.5 µM [cytotoxic, single point]"
C=CC(=O)OCCCCCCCC(C)C,activation,[1],inconclusive: 9.52%
same,Potency,[2],inactive
same,Potency,[3],"inconclusive: 38.5 µM [cytotoxic, partial curve, poor fit]"
same,Potency,[4],"inconclusive: 6.85 µM [inhibitor, single point]"
same,Potency,[5],inactive
Clc1cc(Cl)nc(Cl)n1,Potency,[1],"inconclusive: 24.9 µM [rising, partial curve]"
same,Potency,[2],"inconclusive: 22.2 µM [cytotoxic, single point]"
OC1CCCC1,Potency,[1],"inconclusive: 0.346 µM [rising, full curve, poor fit]"
same,activation,[1],inconclusive: -0.0555%
same,Potency,[4],"inconclusive: 24.3 µM [inhibitor, single point]"
CC(=O)/C(C)=C/C1C(C)=CCCC1(C)C (stereo not given),Potency,[1],inactive
same,Potency,[2],inactive
same,Potency,[4],inactive
same,Potency,[8],inactive
same,Potency,[5],"inconclusive: 12.3 µM [activator, full curve]"
COc1cccc2c1C(=O)c1c(O)c3c(c(O)c1C2=O)C[C@@](O)(C(=O)CO)C[C@@H]3O[C@H]1C[C@H](N)[C@H](O[C@@H]2CCCCO2)[C@H](C)O1,Potency,[1],"inconclusive: 30.1 µM [rising, single point]"
same,Potency,[2],"inconclusive: 0.12 µM [rising, full curve, poor fit]"
same,Potency,[3],active: 5.31 µM
same,Potency,[9],"inconclusive: 0.239 µM [cytotoxic, single point]"
same,Potency,[8],"inconclusive: 0.674 µM [activator, full curve]"
same,activation,[5],inconclusive: -32.8% [at 35.3 µM]
same,Potency,[6],"inconclusive: 3.01 µM [cytotoxic, partial curve]"
